In PubChem BioAssay AID588855 (National Center for Advancing Translational Sciences (NCATS), 2011):
The whole screen tested about 410,000 compounds, of which about 5,000 (1.2%) were called active. This list was built around the results that the source calls inconclusive (neither active nor inactive); the mix of calls is not that of the screen. Calls follow the shape of the dose curve; as a rule, active = well fitted inhibition curve with a large enough effect; inconclusive = small, poorly fitted or top-dose-only effect; inactive = no such curve, though single readings can be large or run the other way. Where the call is inconclusive, the potency comes from a doubtful curve fit.

Assay: qHTS for Inhibitors of TGF-b; also: nearly all actives have a fitted effect of over 65% in size
Conditions: HepG2 CAGA-GFP TGF-b/SMAD3 reporter, GFP fluorescence, 18 h, TGF-beta stimulated, 500 pg/mL final; series mostly up to 46.1 µM
Outline: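 Using HEPG2 CAGA-GFP reporter cells at 1000 cells/well, we pinned test compounds, stimulated with recombinant TGF-beta (500 pg/mL final) and measured total well GFP after 18 h.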
Potency is read from the fitted curve at half-maximal effect; tags tell the direction and shape of the fitted curve.

Row | SMILES | Potency
1 | O=C(O)c1ccc(N=C2c3ccccc3-c3ccccc32)cc1 | inactive
2 | COc1ccc(CN2C(=O)C(C)Nc3ncnc(N4CCc5ccccc5C4)c32)cc1 (centres undefined) | inconclusive: 15.8 µM [inhibitor, single point]
3 | CCC(C)(C)n1nnnc1C(c1ccc(O)c(OC)c1)N1CCN(c2nc3ccccc3s2)CC1 (centres undefined) | inactive
4 | NC(=O)CC(NC(=O)Cc1ccc(Br)cc1)c1ccc(N2CCCCCCC2)c([N+](=O)[O-])c1 (centres undefined) | inconclusive: 17.8 µM [inhibitor, single point]
5 | NC(=O)c1ccccc1Nc1nc2nc3ccccc3c(=O)n2cc1Br | inconclusive: 35.5 µM [inhibitor, single point]
6 | CCc1ccc2[nH]c(=O)c(CN(CC3CCCO3)C(=S)NCc3ccco3)cc2c1 (centres undefined) | inconclusive: 35.5 µM [inhibitor, single point]
7 | Cc1cc2ncn(CCC(=O)NC(C)(C)C)c2cc1C | inconclusive: 0.562 µM [inhibitor, partial curve, poor fit]
8 | COc1cc(/C=C2\C(=O)N(c3ccccc3)N=C2C)ccc1Oc1ccc([N+](=O)[O-])cc1[N+](=O)[O-] | inconclusive: 3.16 µM [inhibitor, single point]
9 | O=C(NC(=S)N1CCCCC1)c1csc([N+](=O)[O-])c1 | inconclusive: 35.5 µM [inhibitor, partial curve, poor fit]
10 | CC(=O)Nc1ccc(S(=O)(=O)NCC(=O)OCC(=O)c2cc(C)n(-c3ccc4c(c3)OCO4)c2C)cc1 | inactive
11 | COc1ccc(Cl)cc1NC(=O)Cc1coc2c(C)c(C)ccc12 | inconclusive: 17.8 µM [inhibitor, single point]
12 | COc1ccc(-c2cc(C(=O)N3CC(C)CC(C)C3)c3ccccc3n2)cc1 (centres undefined) | inconclusive: 14.1 µM [inhibitor, single point]
13 | COc1ccc(N2CCN(C(=O)COC(=O)[C@@H](NC(=O)c3ccccc3Cl)C(C)C)CC2)cc1 | inconclusive: 6.31 µM [inhibitor, single point]
14 | Cc1ccc(OCCNC(=O)c2ccccc2O)cc1 | inactive
15 | CCn1cc(C2=NC(C)(C)CO2)c2ccccc21 | inactive
16 | CCc1ccc2cc3c(cc2n1)C(=O)c1ccccc1-3 | inconclusive: 2.82 µM [inhibitor, full curve, poor fit]
17 | Cc1ccc(O)c(-c2cc(-c3ccccc3[N+](=O)[O-])[nH]n2)c1 | inconclusive: 35.5 µM [inhibitor, single point]
18 | O=[N+]([O-])CC(c1ccc(F)cc1)c1c[nH]c2ccccc12 (centres undefined) | inconclusive: 35.5 µM [inhibitor, single point]
19 | O=C(Nc1ccc(F)cc1)c1ccccc1NS(=O)(=O)N1CCCC1 | inconclusive: 20 µM [inhibitor, single point]
20 | CCOC(=O)c1c(C)[nH]c(C)c1S(=O)(=O)N1CCC(C(=O)N2CCN(c3cccc(C)c3C)CC2)CC1 | inconclusive: 20 µM [inhibitor, partial curve, poor fit]
21 | CC1(C(=O)Nc2cnc3ccccc3c2)CCN1C(=O)CC(c1ccccc1)c1ccccc1 (centres undefined) | inconclusive: 35.5 µM [inhibitor, single point]
22 | CCC(C)(C)n1nnnc1C(c1cc2ccc(OC)cc2[nH]c1=O)N1CCc2ccccc2C1 (centres undefined) | inconclusive: 35.5 µM [inhibitor, single point]

Row | SMILES | Potency
23 | COc1ccc2[nH]c3c(c2c1)CCN1C(=O)C(CC(=O)NCCC2=CCCCC2)C[C@H](C(=O)N2CCOCC2)[C@@]31C (some centres undefined) | inconclusive: 7.94 µM [inhibitor, partial curve, poor fit]
24 | O=C(Nc1ccc(F)cc1)c1ccc(Cn2nc(N3CCN(c4ccccc4)CC3)ccc2=O)o1 | inconclusive: 12.6 µM [inhibitor, partial curve, poor fit]
25 | Cc1ccc([N+](=O)[O-])cc1S(=O)(=O)N1CCCCC1C(=O)O (centres undefined) | inconclusive: 0.631 µM [inhibitor, partial curve, poor fit]
26 | COc1ccc(Br)c(C(=O)Nc2cc3c(cc2N2CCCC2)n(C)c(=O)c(=O)n3C)c1 | inactive
27 | CCn1c(=O)cc(SCC(=O)Nc2cccc(SC)c2)c2ccccc21 | inconclusive: 35.5 µM [inhibitor, single point]
28 | COc1cc(OC)cc(C(=O)N(CCCN2C(=O)c3cccc4cccc(c34)C2=O)c2cccc(OC)c2)c1 | inconclusive: 7.08 µM [inhibitor, partial curve, poor fit]
29 | Cc1ccc(-c2cc(C(=O)OCC(=O)c3ccccc3)c3cccc(Cl)c3n2)cc1 | inactive
30 | O=[N+]([O-])c1cccc(CON=Cc2cc(Cl)ccc2O)c1 | inconclusive: 35.5 µM [inhibitor, single point]
31 | C=CCn1c(SCC(N)=O)nc(C)cc1=O | inconclusive: 6.31 µM [inhibitor, single point]
32 | Cc1cc(C)n(-c2ccc(C(=O)OCc3nnc(-c4ccccc4)o3)cc2)n1 | inconclusive: 3.98 µM [inhibitor, full curve, poor fit]
33 | CN(c1ccc(C(=O)NCCc2ccccc2)cc1)S(C)(=O)=O | inconclusive: 0.562 µM [inhibitor, full curve, poor fit]
34 | O=C(c1ccc(Cl)cc1)c1cc([N+](=O)[O-])ccc1N1CCOCC1 | active: 11.2 µM
35 | O=S(=O)(c1ccccc1)c1cnn(-c2ccccc2)c1-c1ccc(Cl)cc1 | inconclusive: 2.51 µM [inhibitor, partial curve, poor fit]
36 | COc1ccc(CCNC(=O)c2cc(=O)c3cc(C)cc(C)c3o2)cc1OC | inactive
37 | Cc1ccc(S(=O)(=O)NCC(=O)OCC(=O)NCc2ccc(F)cc2)cc1 | inactive
38 | COc1ccc2nc(C)c3c(c2c1)OC(C(C)(Cl)Br)C3 (centres undefined) | inconclusive: 35.5 µM [inhibitor, single point]
39 | N=c1n(CCO)c2ccccc2n1Cc1ccccc1F | inactive
40 | Cc1ccc(C)c(NC(=O)CN(C)C(=O)c2cccc(S(=O)(=O)N3CCCC3)c2)c1 | inactive
41 | S=C1CCC(c2ccc(Br)cc2)=NN1c1ccccc1 | inactive
42 | CCC(NC(=O)Nc1cc(Cl)ccc1OC)c1c(-n2cccc2)sc2c1CCN(C)C2 (centres undefined) | inconclusive: 35.5 µM [inhibitor, single point]
43 | C#CCOCCOCCOCCNc1nc(N2CCN(C(=O)C([C@@H](C)CC)n3cc(C(N)CC(C)C)nn3)CC2)nc(N2CCN(C(=O)[C@H](CCC(=O)O)n3cc(C(N)[C@H](C)CC)nn3)CC2)n1 (some centres undefined) | inconclusive: 12.6 µM [inhibitor, single point]
44 | COc1ccccc1COCC(O)CNCCc1ccc(C(F)(F)F)cc1 (centres undefined) | inconclusive: 35.5 µM [inhibitor, single point]

Row | SMILES | Potency
45 | O=C(/C=C/c1ccco1)Oc1ccc(C(=S)N2CCOCC2)cc1 | inactive
46 | CC1CCN(c2nc3c(-c4cccc(Br)c4)nnn3c3ccccc23)CC1 | inconclusive: 22.4 µM [inhibitor, partial curve, poor fit]
47 | O=C(Nc1ncccc1O)c1cccc(S(=O)(=O)N2CCCC2)c1 | inconclusive: 0.708 µM [inhibitor, full curve, poor fit]
48 | Nc1c(Cl)cc(-c2csc(N3CCCC3c3nc4cc(Cl)c(Cl)cc4n3CCCO)n2)cc1Cl (centres undefined) | inconclusive: 4.47 µM [inhibitor, full curve, poor fit]
49 | O=C(O)c1ccc(N/N=C/c2cccc3nccnc23)cc1 | inconclusive: 14.1 µM [inhibitor, single point]
50 | c1ccc(CN2CCN(CCN3CCn4c3nc3ccccc34)CC2)cc1 | inactive
51 | COc1ccc(C(C(O)C(=O)c2c[nH]c3ccccc23)N2CCN(c3ccccc3)CC2)cc1 (centres undefined) | inconclusive: 15.8 µM [inhibitor, single point]
52 | Cc1ccc(C2=NN(C(=O)CCCC(=O)O)C(c3ccco3)C2)cc1 (centres undefined) | inactive
53 | Cc1nc(N2CCN(S(=O)(=O)c3ccccc3C#N)CC2)c2c(-c3cccs3)csc2n1 | inconclusive: 7.94 µM [inhibitor, full curve, poor fit]
54 | C/C(=N\NC(=S)NC(C)C)c1ccc(Cl)c([N+](=O)[O-])c1 | inconclusive: 35.5 µM [inhibitor, single point]
55 | CC1CCCCN1C(=O)c1ccc2c(c1)N(Cc1cccc(Cl)c1)C(=O)c1ccccc1S2=O (centres undefined) | inconclusive: 8.91 µM [inhibitor, partial curve, poor fit]
56 | CCCc1cc(=O)[nH]c(SCc2cc(Cl)ccc2OC(F)F)n1 | inconclusive: 35.5 µM [inhibitor, single point]
57 | Cc1ccc(C(=O)NCCc2nnc3ccc(SCC(=O)Nc4ccccc4F)nn23)cc1 | inactive
58 | CCOc1ccccc1-c1noc(CCCC(=O)Nc2cccc(C(F)(F)F)c2)n1 | inconclusive: 11.2 µM [inhibitor, partial curve]
59 | Cc1ccc(OCCNC(=O)Cc2ccc(F)cc2)cc1 | inconclusive: 35.5 µM [inhibitor, single point]
60 | COc1ccc(NC(=O)CCSc2ccc(C)cc2)cc1S(=O)(=O)Nc1ccccc1Cl | inactive
61 | O/N=C/c1cn(-c2ccccc2)nc1-c1ccccc1 | inconclusive: 20 µM [inhibitor, single point]
62 | OC[C@@H]1CN(Cc2ccc(-c3ccccc3)cc2)C[C@H](n2cnc3c(N4CCOCC4)ncnc32)O1 | inconclusive: 35.5 µM [inhibitor, single point]
63 | Cc1cc2nn(-c3ccccc3)nc2cc1NC(=O)c1cccs1 | inactive
64 | COc1cccc(/C=N/NC(=O)Cn2cnc3c2c(=O)n(C)c(=O)n3C)c1 | inactive
